Measurements as given in a compilation of properties of binary mixtures (doi:10.1016/j.molliq.2017.11.011).
Some of these densities may be calculated back from excess volumes.

Experiment: xn = mol fraction of the nth substance listed
Conditions: 101 kPa, x2 = 0

## O + CCCC[P+](CC)(CCCC)CCCC.CCOP(=O)([O-])OCC
333.15 K
  mass density: 983.2 kg/m3
338.15 K
  mass density: 980.6 kg/m3
343.15 K
  mass density: 977.8 kg/m3
348.15 K
  mass density: 974.8 kg/m3
